Measured values reported in the supplement of paper PMC5499739.
Whole data set: some 16,000 sequences, median “Z-score” near -0.37, cut for the highest 2% near 3.1. The list shows a part of the results.

tested on: RBM10 RRM1-ZnF-RRM2 (GST-tagged construct); experiment: RNAcompete 7-mer binding Z-score; higher = stronger binding preference
How it was run: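 A designed pool of 241 399 RNAs, each up to 41 nt and transcribed from microarray-derived DNA templates, was used at 1.5 nmol with 20 pmol of GST-tagged RBM10 constructs. The mixture, in 1 ml Hepes pH 7.8 buffer with KCl, NaCl, glycerol, DTT, BSA and glutathione Sepharose beads, was held 30 min at 4°C and then washed four times for 2 min at 4°C. Bound RNA was read out by microarray hybridisation, and enrichment of each heptamer motif was scored as a one-sided Z-score over the probes carrying it.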

| Sequence | RNAcompete 7-mer binding Z-score |
| --- | --- |
| UCGUUAC | -0.57 |
| UAUCGUU | -0.715 |
| AAUAGAG | 0.742 |
| GUCCCUC | -0.712 |
| UACUUUG | -0.781 |
| GACUUGA | -0.606 |
| AAAACGG | 1.65 |
| AUAGUCU | -0.581 |
| GUAACAU | 0.0641 |
| AUCUGGG | 0.479 |
| UACGGAA | 0.865 |
| CCAUCCA | -0.679 |
| AGUCAGG | 1.24 |
| GUGCGCC | -0.00877 |
| UAUCGAU | -0.486 |
| UGAUGCU | -0.581 |
| GUUUUUA | -0.428 |
| UCCAUAG | -0.581 |
| AUAGUUC | -0.577 |
| CCGGCGU | -0.26 |
| UCUUAGC | -0.817 |
| CCUAAUA | -0.679 |
| UGUGCCC | -0.675 |

| Sequence | RNAcompete 7-mer binding Z-score |
| --- | --- |
| UGGCAGA | 1.25 |
| AAUAUAA | -0.296 |
| UCCGUUA | -0.774 |
| GGGAGCG | 3.23 |
| GGUCUCU | -0.49 |
| GCCUAUA | -0.744 |
| CGAUCGG | 0.355 |
| AACUCUA | -0.927 |
| CUCUUGG | -0.599 |
| ACAUCAA | -0.344 |
| ACCCCGU | -0.697 |
| CACAUGC | -0.664 |
| GUCGGAG | 1.24 |
| GAUCGAA | -0.00512 |
| GGUUUCA | 0.304 |
| GAGUCUA | -0.0161 |
| GAAUUUC | -0.46 |
| CCCGCCA | -0.646 |
| UCAGUGA | 0.428 |
| ACUGCGA | -0.486 |
| UAAUCCA | -0.577 |
| AGUCUUC | -0.541 |
| AAAACUG | -0.133 |

| Sequence | RNAcompete 7-mer binding Z-score |
| --- | --- |
| CACUCAG | -0.497 |
| GUCUUCU | -0.683 |
| CUUCCAC | -0.748 |
| ACUGAGG | 0.891 |
| UGUUGAA | -0.0598 |
| UCUUCAA | -0.785 |
| CUCAUAG | -0.759 |
| GCAUACC | -0.449 |
| CAAAAUG | -0.187 |
| CGAAUCC | -0.759 |
| UCUAAGU | -0.431 |
| CCCCUUG | -0.744 |
| AAGCGCU | -0.413 |
| AAACCAC | -0.493 |
| UCAACCC | -0.752 |
| GUGGAUU | 1.52 |
| CCGAAAU | -0.708 |
| UAAAGAU | -0.0925 |
| AACCAUA | -0.61 |
| UACCUUG | -0.755 |
| CUUGUCU | -1.02 |
| UCAAACA | -0.602 |
| UAUUCGA | -0.57 |

| Sequence | RNAcompete 7-mer binding Z-score |
| --- | --- |
| GCGGGUU | 2.54 |
| CCACUUC | -0.89 |
| GCCGCUC | -0.646 |
| ACCUUUA | -0.952 |
| GACGAAU | -0.0379 |
| GUCACCU | -0.635 |
| UCAGGUA | 0.818 |
| CGUACUG | -0.628 |
| UACACCC | -0.77 |
| AAUCGCC | -0.865 |
| CGUUCAU | -0.646 |
| UAGAGCU | -0.355 |
| CAGUCUA | -0.497 |
| ACUACAG | -0.3 |
| ACCUUUG | -0.883 |
| UAGUCAA | -0.333 |
| CCAGAGC | -0.231 |
| GUUAUCC | -0.584 |
| GGAAAUA | 1.16 |
| UUUCCCC | -0.723 |
| GUAUUAG | 0.712 |
| AGUAUUC | -0.504 |
